# Hit rate of the full screen: of about 420,000 compounds, about 64,000 (15%) were called active. The inconclusive results got no clear call from the source; some entries with a clear call stand among them for comparison. Calls follow the shape of the dose curve; as a rule, active = well fitted inhibition curve with a large enough effect; inconclusive = small, poorly fitted or top-dose-only effect; inactive = flat fitted curve, though single readings scatter. Potencies of inconclusive entries are left out as doubtful fits.
# Assay: qHTS for Inhibitors of human tyrosyl-DNA phosphodiesterase 1 (TDP1): qHTS in cells in absence of CPT; also: nearly all actives have a fitted effect of over 55% in size
# Conditions: DT40 Tdp1-/- hTDP1 cells, no CPT, ATP luminescence, 48 h; activity change, negative = growth inhibition: at 46.2 µM (top of the series) unless noted
# Summary of the method: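 Chicken DT40 Tdp1-/- cells stably complemented with human TDP1 were seeded at 400 cells/well with DMSO in place of 20 nM camptothecin. After compound pinning, cells grew at least 48 hr at 37 °C; viability read by CellTiter-Glo luminescence.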
# % is scaled to controls: 0 for no effect and ±100 for the full control effect; potency is read from the fitted curve at half-maximal effect; tags tell the direction and shape of the fitted curve.
Compound,"activity change, negative = growth inhibition",Potency
S=c1[nH]nc(CCc2ccc(Cl)cc2)o1,inactive: -22.1%,–
C[C@H](CO)N1C[C@H](C)[C@@H](CN(C)C(=O)c2ccncc2)OCc2cnnn2CCCC1=O,inactive: -24.2%,–
Cc1cccc(C)c1C(=NCCN(C)C)c1ccccc1,inactive: -10.3%,–
Cc1ccc2nc(-c3cccnc3SCC(=O)N3c4ccccc4CC3C)[nH]c2c1 (stereo not given),inconclusive: -30.8% [inhibitor],–
O/N=C/c1cc(Cl)ccc1OCc1ccccc1Cl,–,"inconclusive [inhibitor, single point]"
O=C1c2ccc(Cl)cc2S(=O)(=O)c2cccc(C(=O)N3CCC(Cc4ccccc4)CC3)c21,–,active: 23.1 µM
CCOC(=O)c1cn2nc(-c3ccc(OC)cc3)cc2nc1C1CCN(C(=O)OC(C)(C)C)CC1,–,"inconclusive [inhibitor, single point]"
O=C(/C=C/c1cccc(Cl)c1)OCC(=O)c1ccc[nH]1,inactive: 4.18%,–
Cc1ccc(C(C)C)c(OCc2ccc(C(=O)N/N=C/c3ccc(C(=O)O)cc3)cc2)c1,–,"inconclusive [inhibitor, partial curve]"
CCCCc1c(-c2ccccc2OC)ncn1CCc1ccccc1,–,"inconclusive [inhibitor, single point]"
CC(CNC1CCCCC1)OC(=O)c1ccc([N+](=O)[O-])cc1 (stereo not given),inactive: 2.65%,–
O=C(Nc1ccc(F)cc1)Nc1ccc(Oc2ncnc3cc(Cl)ccc23)nc1,inactive: 10.6%,–
CNC(=S)SCCOc1ccccc1C,–,"inconclusive [inhibitor, single point]"
COc1ccc(-c2cc(C(C)=O)c(C)n2CCC(=O)Nc2ccc(C(F)(F)F)cc2)cc1,–,active: 13 µM
O=C(c1ccc2c(=O)n3c(nc2c1)CCC3)N1CCN(S(=O)(=O)c2cccc(F)c2)CC1,inactive: -21.5%,–
O=C(CN1C(=O)C2CC=C(Cl)CC2C1=O)NCc1ccccc1 (stereo not given),–,"inconclusive [inhibitor, single point]"
CCC(c1nnnn1-c1ccc(OC)cc1)N1CCN(C/C=C/c2ccccc2)CC1 (stereo not given),–,"inconclusive [inhibitor, single point]"
Nc1nonc1C(=O)NCCNCc1ccc(Cl)c(Cl)c1,–,"inconclusive [inhibitor, single point]"
Cc1ccc(C(CNC(=O)Nc2ccccc2)N2CCN(C)CC2)cc1 (stereo not given),inactive: 24.7%,–
COc1ccc(Cc2c(-c3cccc(Cl)c3)nc3ccc(Br)cn23)c(C)c1,–,"inconclusive [inhibitor, single point]"
Cc1onc(-c2ccccc2)c1C(=O)N1CCCC(C)(C(=O)NS(=O)(=O)C2CC2)C1 (stereo not given),–,"inconclusive [inhibitor, partial curve]"
CC12CCC(=O)C=C1CCC1C2CCC2(C)C(c3csc(N)n3)CCC12 (stereo not given),–,active: 5.8 µM
Cc1oc(C)c(C(N)=O)c1C(N)=O,inactive: 0.78%,–
O=C(O)c1cccc([N+](=O)[O-])c1C(=O)Nc1ccc2ccccc2c1,inactive: -0.0206%,–
CCc1cn(C2CC(O)C(CO)O2)c(=O)[nH]c1=O (stereo not given),inactive: -28.1%,–

Compound,"activity change, negative = growth inhibition",Potency
Nn1c(SCC(=O)Nc2nccs2)nnc1-c1cccnc1,inactive: 15.7%,–
Cc1ccc(S(=O)(=O)N2c3ccccc3-c3c(ssc3=S)C2(C)C)cc1,–,"inconclusive [inhibitor, single point]"
CCSc1nnc(NC(=O)CCNS(=O)(=O)c2ccccc2F)s1,inactive: -12.6%,–
Cc1ccc(OCC(=O)NC(=S)Nc2ccc(Br)cn2)cc1,inactive: -8.06%,–
CCNc1nc(NCC)nc(Oc2ccc(C(=O)OC)cc2)n1,inactive: -28.5%,–
O=C(NCc1ccc(Cl)nc1)c1ccc2nc([C@@H]3O[C@H](CO)[C@H](O)[C@H](O)[C@H]3O)[nH]c2c1,inactive: 7.66%,–
CC(C)c1ccc(CNC(=O)CCc2ccccc2)cc1,–,"inconclusive [inhibitor, partial curve]"
CCOc1cc(CN2CCN(CCc3ccccc3)C(CCO)C2)ccc1OC (stereo not given),inconclusive: -30.4% [inhibitor],–
COc1ccc(/C(O)=C2/C(=O)C(=O)N(c3ccccn3)C2c2ccc(F)cc2)cc1 (stereo not given),inactive: 21.6%,–
Cn1c(=O)cc(SCC(=O)N2CCN(c3ccccc3F)CC2)c2cc(Cl)ccc21,–,"inconclusive [inhibitor, single point]"
NC(=O)[C@@H]1CC2(CC(c3cccc(NC(=O)CC(c4ccccc4)c4ccccc4)c3)=NO2)CN1C(=O)COc1ccc(Cl)cc1 (stereo not given in full),–,"inconclusive [inhibitor, single point]"
Cc1cccc(C)c1C(O)c1ncc(-c2ccccc2F)[nH]1 (stereo not given),–,"inconclusive [inhibitor, single point]"
CCOc1ccc(CCN2C(=O)C(=O)N([C@@H](Cc3ccc(O)cc3)CN3CCC[C@H]3CN3C(=O)C(=O)NC[C@@H]3Cc3ccc(O)cc3)C[C@@H]2Cc2ccccc2)cc1,–,"inconclusive [inhibitor, single point]"
CCOc1cc(N2CCOCC2)c(OCC)cc1NC(=O)Cn1[nH]c(=O)c2ccccc2c1=O,inconclusive: -31.6% [inhibitor],–
Cc1ccc(NC(=O)Nc2cccs2)c(Cl)c1,–,"inconclusive [inhibitor, partial curve]"
Nc1ncc(S(=O)(=O)c2ccc([N+](=O)[O-])cc2)s1,–,"inconclusive [inhibitor, single point]"
O=C(c1ccccc1)c1ccc2nc(N3CCN(C(=O)c4ccco4)CC3)c3nncn3c2c1,–,active: 13 µM
COc1ccc2c(c1)OCC(Cc1ccc(OC)c(OC(C)=O)c1)C2=O (stereo not given),–,active: 0.651 µM
CCOC(=O)c1nnsc1-c1ccc(-c2snnc2C(=O)OCC)cc1,inactive: -8.98%,–
COc1ccc(CN(C)CC(=O)Nc2ccc(Cl)cc2F)c(OC)c1,–,"inconclusive [inhibitor, partial curve]"
CCN1CCC(=NNC(=O)c2ccc(C)c([N+](=O)[O-])c2)CC1,inactive: -6.49%,–
O=C1C(=Cc2ccco2)CCCC1=Cc1ccco1,–,"inconclusive [inhibitor, single point]"
Cc1ccc(N2C(=O)CN(Cc3ccccc3)C2=S)cc1C,inactive: 1.16%,–
O=C(NCC1CCN(C(=O)c2cccc([N+](=O)[O-])c2)CC1)c1cccc([N+](=O)[O-])c1,–,"inconclusive [inhibitor, single point]"
CCC1=NN(C(=O)c2cccnc2)C(O)(C(F)(F)F)C1 (stereo not given),–,"inconclusive [inhibitor, single point]"

Compound,"activity change, negative = growth inhibition",Potency
Cc1ccc(C)c(N(CC(=O)N2CCCC2)S(C)(=O)=O)c1,inactive: 3.84%,–
COc1ccccc1N1CCN(C(=S)NC(=O)c2ccc([N+](=O)[O-])cc2)CC1,–,active: 20.6 µM
COc1cc2c(cc1OC)/C(=C/C(C)=O)OC2,inactive: -2.14%,–
CC(C)c1ccc2c(c1)-c1ccccc1S(=O)(=O)N2CC(=O)N1CCCCC1,–,"inconclusive [inhibitor, single point]"
O/N=C1\CC/C(=N\O)c2nn(-c3ccccc3Cl)nc21,–,"inconclusive [inhibitor, partial curve]"
COc1cc(Cn2c(=O)sc3ccccc32)ccc1OCCC(C)C,–,"inconclusive [inhibitor, single point]"
Cc1ccc(F)cc1NC(=O)/C=C/c1ccc(S(=O)(=O)N2CCOCC2)cc1,–,"inconclusive [inhibitor, partial curve]"
O=C(CSc1ncc(-c2ccccc2)[nH]1)Nc1cccc(C(F)(F)F)c1,–,"inconclusive [inhibitor, single point]"
CCN(CC(=O)Nc1cc(Cl)ccc1C)C(=O)Cn1c(=O)cnc2ccccc21,inactive: 4.61%,–
CCC(=O)N1CCCC1(C)C(=O)Nc1cccc(Oc2ccccc2)c1 (stereo not given),inactive: -0.0268%,–
Cc1cc(Cl)ccc1OCC(=O)Nc1c(C(=O)c2ccccc2)oc2ccccc12,inactive: 6.79%,–
CC1CN(S(=O)(=O)c2cccc(C(=O)Nc3cc(Cl)ccc3N3CCOCC3)c2)CC(C)O1 (stereo not given),–,active: 14.6 µM
O=c1cc(N2CCCCC2)nc2n1CCCS2,inactive: -29.6%,–
CC(C)(C)NC(=O)/C(=C\c1ccc(Br)cc1)NC(=O)c1cccs1,–,"inconclusive [inhibitor, single point]"
CCC(=O)N1CCN(c2nc3ccc(Br)cc3s2)CC1,–,active: 18.4 µM
Cc1ccccc1-c1nc(CS(=O)(=O)CC(=O)Nc2cc(Cl)cc(Cl)c2)c(C)o1,–,"inconclusive [inhibitor, single point]"
COc1ccc(S(=O)(=O)N(C)C[C@H]2Oc3c(NC(=O)Nc4ccc5c(c4)OCO5)cccc3C(=O)N([C@H](C)CO)C[C@@H]2C)cc1,–,active: 20.6 µM
O=C(C1CCCN(S(=O)(=O)c2ccc(Br)cc2)C1)N1CCOCC1 (stereo not given),–,"inconclusive [inhibitor, partial curve]"
CCCc1cc(=O)[nH]c(SCC(=O)Nc2cccc(S(=O)(=O)N3CCOCC3)c2)n1,inactive: -4.3%,–
CCc1ccc(CNC(=O)CCS(=O)(=O)Cc2ccccc2F)cc1,–,"inconclusive [inhibitor, single point]"
Cc1ccc(OCC(=O)Nc2ccc(S(=O)(=O)N3CCOCC3)cc2)c(Br)c1,–,"inconclusive [inhibitor, single point]"
CC1=Nc2cc(C(=O)NCCCOC(C)C)ccc2Sc2ccc(C)cc21,–,active: 4.61 µM
O=C(c1ccco1)N1c2ccccc2Sc2ccccc21,–,"inconclusive [inhibitor, single point]"
S=C(Nc1ccc(Cl)cc1)Nc1cccc2cnccc12,–,active: 23.1 µM
Cc1cc(-c2nnc(SCC(=O)Nc3ccccc3C(F)(F)F)o2)c(C)n1-c1ccccc1,–,"inconclusive [inhibitor, single point]"

# From PubChem BioAssay AID686978 (National Center for Advancing Translational Sciences (NCATS), 2013)
